B1: CPEB3 Ribozyme (parent)
chain: UAACAGGGGGCCACAGCAGAAGCGUUCACGUCGCAGCCCCUGUCAGAUUCUGGUGAAUCUGCGAAUUCUGCUGUAUAUCUC

The source gives no read counts; variants with many changes may rest on few reads.

The variants in the data set derive from B1. As to the kind of experiment: self-cleavage, relative activity (ratio to wild type); higher = more cleavage; in vitro, sequencing. Put shortly:
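Relative activity compares each variant's cleaved/total read fraction with that of the unmutated ribozyme. To get these fractions, barcoded CPEB3 ribozyme libraries from rounds of error-prone PCR were transcribed with T7 RNA polymerase for 5 hours at 37°C and then given 15 min of DNase I treatment before EDTA was added. The RNAs were reverse transcribed with template switching and sequenced on Illumina, and DNA sequencing linked barcodes to variants. A minimum of 5 reads applied, and three batches were averaged.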
With A3U U26C U51A U60C, the self-cleavage was found to be 0.37. The value for A3U C40G U51C A65C U80C was 0.12; that for A5C A13U U31A U41C U58C was 0.3; that for C4U U74A A75G was 1.32. For the variant A5C A15G U25C, the self-cleavage was 0.69. A5G A20G C39G: the self-cleavage is 0.42. With C4A U41C A45G G63A, the self-cleavage was determined as 0.97. The value for A5G A18G A20G U60C U67C was 0.21; that for A5G A15U C29U U58A A65G U78C was 0.09; that for C4U C12U A64G was 1.3.

In the case of A5G A21G C37U U66C U78C, the self-cleavage was determined as 0.32.

As for A5C C40U U49C, the self-cleavage was found to be 0.13. C4G C17U A28C A45U U76C U78C: the self-cleavage was determined as 0.09.

Take A5C A18G A77U: the self-cleavage was determined as 0.64. The value for A3U U26C A28C A35G was 0.74; that for A5G A20G C71G was 0.1; that for A3U G8U A35U A45C was 0.14.

In the case of A5C A35U U41C A45U U72C A75C, the self-cleavage came to 0.1. As for A5C U49C A75U, the self-cleavage was 0.83.

As for A5G A15G A45G G53A A56G U76C, the self-cleavage stood at 0.28. Consider C4G U60A U78C, for which the self-cleavage was determined as 0.64. Turning to C4U A15U U31C U43C A57G, the self-cleavage is 0.24. Turning to A5C A15G A21U U26C U49A, the self-cleavage came to 0.09. For the variant A5C A47G U69A U80C, the self-cleavage amounted to 0.48. For the variant A5C A13U U31C U72C A77G, the self-cleavage worked out at 0.53.

A5G A18G A45G: the self-cleavage was 0.54. With A3U C38U U66A, the self-cleavage is 0.33. The value for A3U G19A A20G A28C U43C U76C was 0.23; that for A3U U48C U60C U72C U78C was 0.18; that for A5C G9U U67A was 0.08. On to A5C U49C A64U, for which the self-cleavage is 0.09.

On to A5C G36U A47G, for which the self-cleavage came to 0.32. On to A5C A18G U25A U58A, for which the self-cleavage came out at 0.37. The value for A5G A13G A18U A47G C62U was 0.16. Consider A3U U43C A47G, for which the self-cleavage is 0.21. The value for A5G A13U A18G A21G U41A A65G was 0.08.

In the case of A5G A13U G52C A57G, the self-cleavage was 1.01. The value for A3U G8A A15C U72C was 0.21; that for C4U C17U A45G was 1.17; that for A5G A21G U26C C40U U41A A65G U80C was 0.07. A5C A15G A75G: the self-cleavage is 0.66. The value for C4A A20G U41C A56G was 0.89.

Take A5G A18U U26A U49C: the self-cleavage came to 0.42. The value for A5G A15G A18G A28G was 0.52; that for A5G A13C U43C A64U was 0.11; that for A5G A15U U31C U54G U60A A75G was 0.09. The value for A3U G10A A21G U26C C40G U51A was 0.05; that for A3U U43C A57G A64G was 0.23. With A5C U43A A45G U51C U72C the figure was 0.78; with A5C C14A U72C, 1.13. A3U U25C A64G U76A: the self-cleavage is 0.31. A5G A13U U49C U58C: the self-cleavage is 0.23. The value for A3U C38U U58C A65G was 0.43; that for C4U A18U U25C was 0.1.

As to A3U G7A G8A C40G U54C A56U, the self-cleavage was found to be 0.11. With A5C A35G G63A U67C the figure was 0.71. In the case of A5C U51A U58C G73A, the self-cleavage worked out at 0.6. With C4U A13U A15G U72A the figure was 0.46.

Take A5G A18G A20U C29U G53U: the self-cleavage stood at 0.36. With A3U U25A U60C the figure was 0.11. Turning to A5G A20C G24U U51A C71U, the self-cleavage was 0.09. The value for A5G A13U U60C U72C was 0.3; that for A3U U25A A47G C50G U54C U72A was 0.06.

With A5G A13U C62A U80C, the self-cleavage was found to be 0.36.

In the case of A3U U43C U72C, the self-cleavage was 0.59.

In the case of C4A U41C U78C, the self-cleavage worked out at 1.18. The value for C4G A18G A20G C23G was 0.11. Take A3U G6U A28C U31A U41C: the self-cleavage was determined as 0.05. With A5G A20G U26A C27U G42A U66C A77G the figure was 0.09; with A5G A20G G73A, 1.11; with A5G A15G U54C G61C U72C, 0.09. With A3U G8A U74A the figure was 0.61; with A5G A21G A45U U49C, 0.23.

With A5G A13C G33A U51A, the self-cleavage is 0.17.

As to C4U A28G U69C, the self-cleavage amounted to 0.17. The value for C4G C14U A15G A64G G73A was 1.29; that for A5G A13U A18G A28G A35G U49C U67A was 0.09. Turning to A3U U54C A56G A75G, the self-cleavage was 0.57.

As to A5G A20G C38U, the self-cleavage was determined as 0.49. The value for A5G A18U C68A was 0.28.

Turning to A5G A20U U67A, the self-cleavage is 0.48. For the variant C4U G6A C37A A45G, the self-cleavage came out at 0.11. As to A5G A15G A45G A57G A64G, the self-cleavage is 0.49. The value for A3U U51C U54A U72C was 1.22.

For the origin of these results see the RNAGym collection of RNA variant scans (doi:10.1093/nar/gkz1192).
